# Whole data set: some 33,000 sequences, median “E-score (-0.5 to 0.5)” near -0.04, cut for the highest 2% near 0.36. Some of the results follow.
# Target: T1, Hmlalpha2 (UniProt P0CY09)
# T1 sequence: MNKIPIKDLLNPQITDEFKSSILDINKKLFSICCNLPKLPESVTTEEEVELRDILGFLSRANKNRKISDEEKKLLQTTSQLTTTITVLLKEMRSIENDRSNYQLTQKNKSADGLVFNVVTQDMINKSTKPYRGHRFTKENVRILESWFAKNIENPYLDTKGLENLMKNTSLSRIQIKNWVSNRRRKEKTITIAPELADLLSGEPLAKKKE
# Experiment: PBM E-score (8-mer binding enrichment) (E-score (-0.5 to 0.5)); higher = stronger / more preferred TF binding; most listed sequences are background and not binding sites
# Conditions: protein concentration: 200 nM; construct: GST-full length
# Procedure, shortened: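 Masliner-normalised scans of fluorescent anti-GST signal were the basis for scoring. That signal came from GST-tagged yeast transcription factors applied at about 100-200 nM to double-stranded universal all-10-mer Agilent arrays on fresh or once-stripped slides. Each ungapped eight-base word, pooled with its reverse complement, received an E-score from the Universal PBM Analysis Suite.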
row,Sequence,PBM E-score
1,GAGATGCA,-0.00777
2,ACCAGTCG,0.0992
3,AATTTACG,0.272
4,AAGTCGGC,-0.134
5,CAGAGAAA,0.0278
6,ATCGTGTC,0.358
7,GTTAGTTA,0.306
8,AATAGATG,0.148
9,CGTGCTGC,-0.0508
10,ACACTCGA,0.0872
11,GCCGAGCC,-0.127
12,CACTGTCC,-0.0263
13,CTCTCCGC,-0.0537
14,CATTTGAA,-0.0158
15,CTGCAACC,-0.291
16,AACTGATA,0.0148
17,CCCAGCCG,-0.369
18,GTACTTTA,0.163
19,TAGTGAAA,0.0195
20,CCCTAGGC,-0.231
21,GGACCTTA,-0.238
22,CGTACTAG,0.089

row,Sequence,PBM E-score
1,CTACCCGA,-0.0897
2,ATGACCGA,-0.152
3,AGAGGCGG,-0.231
4,CGGGCACC,-0.182
5,AAACTCTG,0.0965
6,GGTACCAA,-0.131
7,ATTTTCTA,0.106
8,AAAAGTTC,0.0929
9,TATACCCA,-0.175
10,ATGCGTAA,0.375
11,CCCTTGCG,-0.138
12,AGTGTATC,0.0798
13,CGCAAGTC,-0.316
14,AGGGTCGG,-0.221
15,AGAGCACT,-0.0915
16,CGGGTATA,0.00682
17,GAAACACC,0.0502
18,CCGCTGGC,-0.298
19,CATAAGGG,-0.0564
20,AGCCTATA,-0.0454
21,GCCCACTA,-0.0975
22,AGTCCCCG,-0.23

row,Sequence,PBM E-score
1,AATTGATC,-0.122
2,AGTGAGAT,-0.121
3,CTCCACCA,-0.25
4,GGTCTAAA,0.0137
5,ACATACGG,0.233
6,TAAGACCA,0.0825
7,CGAGCTGC,-0.166
8,GAAACAAC,0.0246
9,ACTTTCTA,0.101
10,GGACCAGA,0.0155
11,AACGACCA,0.0222
12,AGAACTGG,-0.133
13,GGGGGCTA,-0.311
14,ATGCTTCA,0.0129
15,GGAGGACA,-0.0504
16,AATACTGA,0.14
17,AATGGCAT,0.0838
18,AAGCGACC,0.0134
19,TACAGGGA,0.0767
20,CGTCGGAC,-0.223
21,ATCGTACC,-0.223
22,AAGTCCAA,-0.0117

row,Sequence,PBM E-score
1,CAGCTTAC,0.117
2,AATTTCCA,0.18
3,CACGCAAA,0.11
4,GGTAGGCA,-0.21
5,AAAGGTGC,-0.175
6,GGGACTAA,-0.172
7,AGCTGCTC,-0.17
8,CGAGTTGA,0.0373
9,GCGCATCA,-0.0684
10,GCACGGAA,-0.101
11,AAAAGGGC,-0.138
12,AGGTAGAA,-0.0176
13,CGCGGGAA,0.0028
14,AGTGATGA,-0.152
15,GTGAGTTA,0.0231
16,AGTATTAA,0.249
17,CTCGCAAG,0.00268
18,CCGCCGAA,-0.15
19,ACCCAGGC,-0.013
20,GGAGATCA,-0.209
21,ATGGGGCA,-0.244
22,CAACTGAA,-0.0485

row,Sequence,PBM E-score
1,AAGACATA,0.0988
2,CTCGGGGA,-0.113
3,AACAAGTC,0.16
4,ACATCTAT,0.184
5,CTCCAGAA,-0.12
6,AGCACCCC,-0.21
7,GGACATAA,0.05
8,CCTCACTC,-0.191
9,CGGCGGTC,-0.26
10,AGGCTAAC,0.0383
11,GTGTTGTA,0.382
12,CAACACCC,-0.0107
13,CTCGCCCC,-0.317
14,TAGTAAGA,0.109
15,ATAATAAG,0.166
16,ATAGCTTG,-0.0587
17,GTAAAATA,0.2
18,AACCGGCT,-0.0852
19,ACGCTGAT,0.233
20,CAGTGTCC,-0.116
21,CCACCTTA,-0.00683

# From the supplement of paper PMC3334620
